According to the supplement of paper PMC10126150:
Values marked as one replicate rest on one cluster of the flow cell; about a third of the high ones do not repeat.

Each sequence was assayed on ATP (assay: switch fluorescence ratio, 500 uM ATP over buffer (Cy3 cluster intensity, sum of 5 cycles each) (fold (ratio)); higher = stronger signal-on switching upon ATP binding; sequences stand for … in TCGTCGGCAGCGTCAGATGTGTATAAGAGACAGTTTTTTTTTTTTTTTTTTTTTTTTT…TC). Conditions: aptamer strand: ATP DNA aptamer (quencher-CACCTGGGGGAGTATTGCGGAGGAAGG + anchor), 100 nM annealed; ATP concentration: 500 uM; one replicate.
How it was run: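 Five buffer/ATP imaging cycles were run on Cy3-labelled switching-strand clusters on a modified Illumina MiSeq flow-cell, with NaOH stripping and re-annealing between cycles. In each cycle, clusters annealed to 100 nM quencher-labelled ATP aptamer were imaged in selection buffer, then after 15 min with 500 uM ATP at 22 °C. Per cluster, the fluorescence ratio is summed target-cycle over summed buffer-cycle Cy3 intensity, averaged per switch-domain sequence. Only clusters within 100-1000 RFU were kept.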
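Also: ATP exposure 15 min at 22 °C before imaging.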

Row | Sequence | switch fluorescence ratio
1 | CGGGGATAGA | 1.01
2 | CGGGGGCCGG | 1
3 | CGGGGTATCA | 0.955
4 | CGGGGTGAAG | 0.98
5 | CGGGTAGCTG | 1.04
6 | CGGGTCAGAA | 1.01
7 | CGGGTCCATA | 1.03
8 | CGGGTCGCAA | 1.32
9 | CGGGTCGCTA | 1.11
10 | CGGGTCTAGG | 0.991
11 | CGGGTCTGCA | 1.04
12 | CGGGTGACAT | 1
13 | CGGGTTCTGC | 1.86
14 | CGGGTTGAAA | 1.04
15 | CGGTAAGGTA | 0.955
16 | CGGTAATGAG | 1.01
17 | CGGTACCTCT | 0.947
18 | CGGTATCGGT | 0.949
19 | CGGTATGATG | 0.948
20 | CGGTCACTAA | 1.02
21 | CGGTCCGGAC | 0.957
22 | CGGTCGGCGC | 0.996
23 | CGGTCGTTGA | 1.02
24 | CGGTCTAGGC | 0.997
25 | CGGTCTCCCG | 1.01

Row | Sequence | switch fluorescence ratio
26 | CGGTCTCGAA | 0.996
27 | CGGTGACAAT | 1.01
28 | CGGTGCACTT | 1.05
29 | CGGTGCGGC | 0.942
30 | CGGTGCTAGT | 1.02
31 | CGGTGCTTTA | 1.03
32 | CGGTGGAAGG | 1.03
33 | CGGTGGCGGT | 1.16
34 | CGGTGTCGT | 1.06
35 | CGGTGTGCTG | 0.903
36 | CGGTGTTAGA | 1.03
37 | CGGTGTTTGT | 0.987
38 | CGGTTACCAT | 0.996
39 | CGGTTAGCGT | 0.972
40 | CGGTTAGGCA | 0.986
41 | CGGTTATAGA | 1
42 | CGGTTCGATA | 1.06
43 | CGGTTGCAAA | 1.1
44 | CGGTTGCCAA | 1.06
45 | CGGTTGGAAC | 0.984
46 | CGGTTGTGGA | 1.01
47 | CGGTTTGCCG | 1.06
48 | CGTAAAAGTC | 0.975
49 | CGTAAAATC | 1.03
50 | CGTAAAGCTA | 1.05

Row | Sequence | switch fluorescence ratio
51 | CGTAAAGTAT | 1.01
52 | CGTAACAGCG | 0.957
53 | CGTAACCGGT | 0.998
54 | CGTAAGACTT | 1.13
55 | CGTAATCGAG | 1.11
56 | CGTAATTAAG | 0.98
57 | CGTACCCCAC | 1.12
58 | CGTACGGAGC | 1.21
59 | CGTACGGCGA | 1.18
60 | CGTACTAGCT | 1.03
61 | CGTACTTACT | 1.29
62 | CGTACTTCTA | 1.01
63 | CGTAGAACTT | 0.989
64 | CGTAGATAGG | 1.03
65 | CGTAGATATT | 1.02
66 | CGTAGCCCCG | 0.917
67 | CGTAGTAGTT | 0.987
68 | CGTAGTCTAA | 1.09
69 | CGTATAAGCG | 0.899
70 | CGTATCGTTG | 0.985
71 | CGTATCGTTT | 1.01
72 | CGTATGTTTG | 1.09
73 | CGTATTAGTG | 0.996
74 | CGTATTTCTC | 1.04
75 | CGTCAACCCC | 1.19

Row | Sequence | switch fluorescence ratio
76 | CGTCAATGCA | 1.18
77 | CGTCACACGT | 0.999
78 | CGTCACTGCA | 1.03
79 | CGTCACTTCA | 1.07
80 | CGTCATAGA | 0.98
81 | CGTCATTGAC | 1.01
82 | CGTCATTTAA | 1.06
83 | CGTCCAAGGA | 1.04
84 | CGTCCACCCA | 1.05
85 | CGTCCCCGTA | 1.18
86 | CGTCCCTAGG | 2.01
87 | CGTCCGAACG | 1.34
88 | CGTCCTCCCC | 3.57
89 | CGTCGAGACA | 1
90 | CGTCGAGTTT | 0.982
91 | CGTCGCGGA | 0.949
92 | CGTCGCGTGG | 0.983
93 | CGTCGGCAGC | 0.998
94 | CGTCGGGTGC | 1.07
95 | CGTCGGTCAA | 2.23
96 | CGTCGTCATC | 1
97 | CGTCGTCCGG | 1.02
98 | CGTCGTTTCG | 0.988
99 | CGTCTACCTT | 1.06
100 | CGTCTATTAA | 0.99

Row | Sequence | switch fluorescence ratio
101 | CGTCTCAGGT | 1.04
102 | CGTCTGAGGA | 0.978
103 | CGTGAAAGGC | 1.02
104 | CGTGAAATAC | 4.72
105 | CGTGAATGCG | 0.993
106 | CGTGACACAA | 1.04
107 | CGTGACACGA | 0.962
108 | CGTGAGAACA | 0.989
109 | CGTGAGAAGC | 1.01
110 | CGTGAGCATT | 1.51
111 | CGTGAGGGAA | 0.973
112 | CGTGATCTAT | 0.986
113 | CGTGCAATGT | 2.3
114 | CGTGCAGCAT | 1.08
115 | CGTGCATAAC | 2.53
116 | CGTGCCTAAC | 1.05
117 | CGTGCGGGG | 0.971
118 | CGTGCTGTCA | 1.01
119 | CGTGGAG | 1
120 | CGTGGGTGA | 1.07
121 | CGTGGGTGCC | 0.995
122 | CGTGGGTTAA | 0.978
123 | CGTGGGTTG | 1.02
124 | CGTGGTTAAA | 0.968
125 | CGTGTAAAAA | 0.961

Row | Sequence | switch fluorescence ratio
126 | CGTGTAGAAG | 1.03
127 | CGTGTATCTT | 0.936
128 | CGTGTCAGAG | 1
129 | CGTGTCATAC | 1.57
130 | CGTGTGAGAA | 0.986
131 | CGTGTGTGCT | 1.01
132 | CGTGTGTTTC | 0.965
133 | CGTGTTACTA | 0.988
134 | CGTGTTTCCC | 1.01
135 | CGTTAAAGCA | 0.997
136 | CGTTAAAGGC | 1.07
137 | CGTTACAGGC | 1.07
138 | CGTTACCAAA | 0.97
139 | CGTTACCCCT | 1.05
140 | CGTTAGCCTA | 0.999
141 | CGTTAGGCAT | 0.971
142 | CGTTAGGGTC | 1.01
143 | CGTTATAACT | 0.947
144 | CGTTATCTGA | 1.04
145 | CGTTATGTAA | 1
146 | CGTTATGTGA | 0.968
147 | CGTTCATTGA | 0.975
148 | CGTTCCGGTA | 1.06
149 | CGTTCGATA | 0.98
150 | CGTTCTCTGG | 0.976

Row | Sequence | switch fluorescence ratio
151 | CGTTCTTGAT | 0.944
152 | CGTTCTTTAT | 1.03
153 | CGTTGAATAG | 1.25
154 | CGTTGATACG | 1.02
155 | CGTTGCTGCA | 0.997
156 | CGTTGCTTAC | 2.29
157 | CGTTGGCATT | 1.08
158 | CGTTGGCTAG | 0.979
159 | CGTTGGGTGT | 0.961
160 | CGTTGGGTT | 0.984
161 | CGTTGTATTG | 1.02
162 | CGTTGTCTGA | 0.991
163 | CGTTGTCTTC | 0.981
164 | CGTTGTGATC | 0.988
165 | CGTTGTTGGG | 0.996
166 | CGTTTAAGGT | 0.969
167 | CGTTTAATT | 0.996
168 | CGTTTAGGAG | 0.969
169 | CGTTTAGGCG | 0.932
170 | CGTTTATGGA | 1
171 | CGTTTATTTG | 0.977
172 | CGTTTCAATT | 1
173 | CGTTTCCATA | 0.952
174 | CGTTTCGAA | 1.02
175 | CGTTTGTAAG | 1.03

Row | Sequence | switch fluorescence ratio
176 | CGTTTGTACA | 1.01
177 | CTAAAACGTA | 1.06
178 | CTAAACTGCT | 1
179 | CTAAACTTTT | 1.04
180 | CTAAAGAAGA | 1.02
181 | CTAAATCCGA | 1.06
182 | CTAACACCGT | 0.941
183 | CTAACCGTAT | 1.1
184 | CTAACGGCAG | 0.993
185 | CTAACGTCCA | 1.09
186 | CTAACTCCAG | 1.07
187 | CTAACTTAAC | 1.09
188 | CTAAGAGCTG | 0.942
189 | CTAAGCGTA | 0.992
190 | CTAAGGCTGG | 1.02
191 | CTAAGGGCGG | 1
192 | CTAAGGGCGT | 1.01
193 | CTAAGGGTAG | 1.82
194 | CTAAGTAGTC | 1.01
195 | CTAAGTTTGC | 0.968
196 | CTAATACCGT | 1.04
197 | CTAATAGG | 1.02
198 | CTAATCATTG | 0.984
199 | CTAATCGTAA | 1.15
200 | CTAATGGGTC | 1.01
